# Reference: the supplement of paper PMC3334620
# Over roughly 33,000 sequences, “E-score (-0.5 to 0.5)” has its median near -0.032; the highest 2% begin near 0.36. Some of the results follow.
# Biological target: T1, Sko1 (UniProt Q02100)
# T1 sequence: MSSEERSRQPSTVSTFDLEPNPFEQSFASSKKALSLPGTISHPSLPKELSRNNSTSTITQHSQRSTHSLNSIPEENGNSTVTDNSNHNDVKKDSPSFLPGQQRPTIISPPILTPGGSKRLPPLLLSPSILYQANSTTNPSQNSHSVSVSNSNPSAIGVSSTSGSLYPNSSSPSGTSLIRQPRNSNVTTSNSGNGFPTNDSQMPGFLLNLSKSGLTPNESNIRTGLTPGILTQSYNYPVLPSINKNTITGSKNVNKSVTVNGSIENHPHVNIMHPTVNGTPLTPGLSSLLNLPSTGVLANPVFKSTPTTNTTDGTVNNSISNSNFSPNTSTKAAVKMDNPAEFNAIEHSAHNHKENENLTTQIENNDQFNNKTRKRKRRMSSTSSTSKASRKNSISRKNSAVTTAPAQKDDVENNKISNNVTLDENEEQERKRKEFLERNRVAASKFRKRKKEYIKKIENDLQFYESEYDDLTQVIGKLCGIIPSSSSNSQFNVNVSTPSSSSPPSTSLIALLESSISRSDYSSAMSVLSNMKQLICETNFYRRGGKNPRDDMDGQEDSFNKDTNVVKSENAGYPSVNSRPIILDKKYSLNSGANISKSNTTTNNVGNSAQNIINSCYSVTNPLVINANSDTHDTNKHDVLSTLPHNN
# Assay: PBM E-score (8-mer binding enrichment) (E-score (-0.5 to 0.5)); higher = stronger / more preferred TF binding; most listed sequences are background and not binding sites
# Conditions: protein concentration: 200 nM; construct: GST-full length
# How it was run: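 For each ungapped eight-base word taken together with its reverse complement, the Universal PBM Analysis Suite assigned an E-score. Binding data came from GST-tagged yeast transcription factors, applied at about 100-200 nM, on universal all-10-mer Agilent arrays made double-stranded by primer extension. Fluorescent anti-GST marked bound protein, and scans were normalised with masliner.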
row,Sequence,PBM E-score
1,ATGCCCAG,-0.296
2,CCGTAGAG,-0.258
3,CCTTATTA,0.184
4,AAGGCATT,-0.134
5,CCCCAGAG,-0.261
6,ACCCACTC,-0.123
7,AATTGACT,-0.0553
8,AAAGGTGT,-0.138
9,CAGGACTC,-0.0403
10,CACGTACC,0.407
11,ATCGGCCA,-0.181
12,ACCAGCCA,-0.235
13,GACGACGC,0.241
14,CGTGTCAC,0.268
15,AGCGGTCG,-0.171
16,ACCTCCCA,-0.257
17,AAACTTGC,0.12
18,ATGTTCTA,0.0474
19,ACCCACAA,0.00178
20,GACTGACC,-0.166
21,AGAGCAGC,-0.173
22,CAACTCGG,-0.214
23,TCCATTCA,-0.0378
24,GGCTGCTA,-0.177
25,AGTGCCAT,-0.134

row,Sequence,PBM E-score
1,GACCAATA,0.0125
2,GCACTAGC,-0.143
3,CCGCCCTC,-0.23
4,CCGTCGGA,-0.0879
5,CAAGTTTC,0.0422
6,ACCATGCT,-0.0226
7,CTAGCTGC,-0.201
8,CCTGTCCG,-0.0997
9,CGGGAGCC,-0.265
10,GGAAGGCC,-0.252
11,GTGCAAAC,0.00584
12,CCTGCTTC,-0.195
13,CATATGCA,0.168
14,GTGTAGCA,-0.0576
15,ACCCAAAG,-0.0205
16,CAAGAGTG,-0.148
17,CGTCAACA,0.323
18,AGCTTAGA,-0.009
19,AGGTGATA,-0.121
20,TACGAAGA,0.161
21,AGCTTACT,-0.0585
22,ACATATTG,0.127
23,AAGGCAGC,-0.141
24,CCAGAAAG,0.0379
25,CACCCGGG,-0.242

row,Sequence,PBM E-score
1,CAGCAACA,0.0646
2,AGGCACCC,-0.278
3,CCGGGCAC,-0.318
4,ATCAATCG,0.21
5,CGATGGTC,0.0498
6,ATTCGGAG,-0.0893
7,CCTTGTAG,-0.147
8,CATAATGA,0.289
9,GGGCCCGA,-0.0786
10,CTCTCAAG,-0.0391
11,ATTGTGCA,0.076
12,GAAGTCAC,0.0364
13,AGCTCTTC,-0.135
14,ATCGACTG,-0.122
15,TATTTACA,0.235
16,CTCCCCCC,-0.197
17,TCAAAACA,0.0876
18,CTTTTCGC,0.124
19,TCCGACAA,-0.0439
20,CCTGCCAC,-0.147
21,TATAAGAA,0.0806
22,CGGGTGAG,-0.217
23,AATTTGTC,0.147
24,ATGCTCTA,-0.14
25,CTTATAAG,-0.174

row,Sequence,PBM E-score
1,GAATGAAA,0.051
2,ACTAGATG,0.0325
3,CGGTGTCA,-0.0493
4,AACACTCC,-0.0803
5,AAAGCTCC,-0.162
6,CCCCGGCG,-0.242
7,ACCCGCTG,-0.242
8,AACGGGTG,-0.174
9,CTCCGACC,-0.408
10,AGCTAAGC,-0.188
11,CAACTCCG,-0.0221
12,ATCCGCAA,-0.0993
13,CTCTTGCC,-0.0193
14,AACGTAGA,0.357
15,TCACTCAA,0.0033
16,AAACGGGC,-0.131
17,ATATTTCG,0.235
18,AAGTATGC,-0.0547
19,GCTTACCC,-0.365
20,ATGCCGTC,0.125
21,GCTTAATA,0.0235
22,ATGGTCTG,-0.0945
23,CATTCGAA,0.106
24,ATTCGTTG,0.0792
25,GATGTAAC,0.229

row,Sequence,PBM E-score
1,GATGGGAC,-0.215
2,TGCCGGAA,-0.0998
3,AAATTCCG,0.0779
4,GATCCACA,-0.0832
5,GCTGTTTA,0.0734
6,TCACACCA,0.12
7,GACGACTA,0.0238
8,ACACTATC,0.0147
9,AGCCGGTC,-0.119
10,CAGAATGC,-0.171
11,CCTCTCCA,-0.204
12,CGTCTTCA,0.202
13,ACGGGTGA,-0.0676
14,GCCCACGC,-0.12
15,ACGAGTCA,0.00223
16,AAATGTAC,0.171
17,CATAATTC,0.238
18,CGAAGAAA,0.0872
19,TAAACTAA,0.23
20,AGTGATCC,-0.194
21,CCGGGAGA,-0.315
22,CAATTTAC,0.132
23,GTCTTAAC,0.081
24,CCCCAGTA,-0.235
25,ATAGGCTC,-0.0336

row,Sequence,PBM E-score
1,CCAAGAGC,-0.203
2,CCGAAACG,0.0669
3,CGTAGTGC,0.31
4,GATATGCC,-0.224
5,CGAGAACA,0.0508
6,CCGAGCAA,-0.0691
7,CAGATAGA,-0.0614
8,GGAAGCCA,-0.422
9,CCGTGGTC,-0.235
10,CCGCACCA,-0.0308
11,AGTATAGA,0.0171
12,AATGTACG,0.246
13,AAGACAAT,0.0764
14,CCTTCTAC,-0.144
15,ACAGTTCC,-0.224
16,GTGCTTCA,0.0642
17,CGCGGCCG,-0.196
18,CTTCTTGC,-0.051
19,ACGCCCCA,-0.096
20,CGCCAGCC,-0.206
21,ACACTGGC,-0.147
22,GGGAAGCA,-0.156
23,CGGCGGAC,-0.233
24,TACAGAGA,-0.156
25,CGTTCCAG,-0.0778

row,Sequence,PBM E-score
1,ACTTGGGG,-0.268
2,CCAGAGAA,0.0433
3,GCAACTGC,0.131
4,AATGCCCA,-0.173
5,ATCTCGGC,-0.191
6,GCCCATTA,-0.0116
7,ACAATAAG,-0.0356
8,CAAAAAAC,0.128
9,GACAAACC,-0.169
10,ACGCACGG,0.215
11,GACTCATC,-0.0097
12,CAGGTGCC,-0.236
13,ATTCGGTA,0.185
14,AGATGGAC,0.0798
15,GTCGATAA,-0.00607
16,CAACTTGA,0.12
17,ATGGGGGA,-0.249
18,ACTGAGCA,0.0376
19,AAAGAAGT,-0.0616
20,TCATCACA,0.157
21,AACGAATT,0.197
22,GAAGATTA,0.0617
